Measured values as given in PubChem BioAssay AID493208 (National Center for Advancing Translational Sciences (NCATS), 2011).
Among all 44,000 compounds or so, about 340 (0.77%) were called active. Not shown: some 5% with an inconclusive outcome. Calls follow the shape of the dose curve; as a rule, active = well fitted inhibition curve with a large enough effect; inconclusive = small, poorly fitted or top-dose-only effect; inactive = flat fitted curve, though single readings scatter. The list shows a part of the results.

assay: Acumen qHTS Assay for Inhibitors of the mTORC1 Signaling Pathway in MEF (Tsc2-/-, p53-/-) Cells: Sytravon; conditions: phospho-rpS6 immunofluorescence/PI, 24 h; series mostly up to 38.3 µM; activity change, negative = inhibition: at the top concentration;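 also: plate controls were DMSO for no effect and rapamycin for full effect; nearly all actives have a fitted effect of over 50% in size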
How it was run: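 Compounds act on Tsc2-/-, p53-/- fibroblasts carrying an empty vector for 24 h before fixation and dual staining for phospho-S6 and DNA (propidium iodide). Values are percentages of cells above a rapamycin-defined pS6/PI threshold.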

Activity change, negative = inhibition, inactive:
CC(C)c1cnc2c(c1SCC(=O)Nc1ccc(C(N)=O)cc1)c(=O)n(C)c(=O)n2C 0.236%, CCOC(=O)Cn1c(-c2cccs2)cc2cc(Cl)ccc21 -1.29%, Cc1ccc(NC(=O)Nc2cccs2)c(C)c1 0.0781%, CCOC(=O)c1cc(OC(=O)c2ccccc2OC)n(-c2ccccc2)n1 -1.14%, COc1ccc(N(C(=O)c2cccc(C)c2)S(=O)(=O)c2ccc3c(c2)n(C)c(=O)n3C)cc1 -3.56%, CN(CCCNC(=O)c1cc2c(=O)n(C)c3ccccc3c2s1)Cc1ccccc1 -0.708%, O=C(Cn1c(=O)n(-c2ccccc2)c(=O)c2ccc(C(=O)NCc3ccc4c(c3)OCO4)cc21)Nc1ccc(F)c(Cl)c1 -2.57%, COc1ccc(CCNC(=O)c2ccc3c(c2)N(Cc2cccc(Cl)c2)C(=O)c2ccccc2S3=O)cc1OC (stereo not drawn) -0.818%, O=C(c1ccccc1Br)N(Cc1ccccc1F)C1CCS(=O)(=O)C1 (stereo not drawn) -5.81%, CCC(C)NC(=O)CSCc1nc(-c2ccc(C)cc2)oc1C (stereo not drawn) 2.66%, CN1CCN(C(=O)c2ccc3c(c2)N(Cc2ccc(Cl)cc2)C(=O)c2ccccc2S3(=O)=O)CC1 -2.21%, Cc1cccc(CC(=O)NCCc2sc3nc(-c4ccc(F)cc4)nn3c2C)c1 -2.13%, COc1ccc(OCC(=O)N(Cc2ccc(C)o2)C2CCS(=O)(=O)C2)cc1 (stereo not drawn) 2.19%, CCOc1ccc(CCNC(=O)c2ccc(-c3nc(CSc4ccccc4)c(C)o3)cc2)cc1 0.393%, CCc1ccc(N(CC)C(=O)c2sc3nc4n(c(=O)c3c2C)CCCC4)cc1 3.76%, COc1ccccc1NC(=O)CN1C(=O)CCSc2ccccc21 -12%, O=C(Cn1c(=O)ccc2cc(S(=O)(=O)N3CCCC3)ccc21)Nc1ccc(Cl)cc1 -16.9%, Cc1ccc(Cl)cc1NC(=O)CSCc1cnn(-c2ccccc2)c1-n1cccc1 -10%, CCN(C(=O)c1cn(C)c(=O)c2ccccc12)c1cccc(C)c1 -11.6%, Cc1cccc(NS(=O)(=O)c2ccc3c(c2)CCN3C(=O)C2CC2)c1C 0.371%, CCOc1ccc(N(CC(=O)Nc2ccccc2CC)S(=O)(=O)c2c(C)noc2C)cc1 1.3%, COc1ccc(C(=O)NNc2ncnc3c2cnn3-c2ccc(C)c(Cl)c2)cc1 5%, COc1ccc(NC(=O)c2c(NC(=O)c3ccncc3)sc3c2CCC(C(C)(C)C)C3)cc1 (stereo not drawn) -11.7%, COc1cccc(Cn2c(=O)n(CCc3ccccc3)c(=O)c3c2c2cc(OC)ccc2n3C)c1 -4.57%, Cc1ccc(Cl)cc1NC(=O)C1CCN(S(=O)(=O)c2cccc3nonc23)CC1 2.51%, Cc1cccc(NC(=O)CSc2nc3ccccc3nc2N2CCCCC2)c1C -4.1%, COc1cc(NC(=O)C(Cc2ccccc2)NS(=O)(=O)c2cccc3nsnc23)cc(OC)c1 (stereo not drawn) 0.385%, COc1ccc(Br)cc1CNC(=O)c1ccc2c(c1)nc1n2CCC(C)C1 (stereo not drawn) 1.8%, O=C(Cn1ccn(-c2ccc(F)c(F)c2)c(=O)c1=O)NCCc1ccccc1 -22%, Cc1cc(C)cc(NC(=O)c2cc(S(=O)(=O)N3CCC(C)CC3)cn2C)c1 -2.65%, CC(=O)c1cccc(NC(=O)CCc2c(C)nc3c(c(C)nn3-c3ccccc3)c2C)c1 -1.27%, CCCCNc1nc(Oc2ccc(=O)n(C)n2)nc(N2CCOCC2)n1 1.7%, O=C(CCC1N=C2c3ccccc3N=C(SCc3cccc(Cl)c3)N2C1=O)N1CCN(c2ccccc2)CC1 (stereo not drawn) -2.74%, CCOc1ccc(-c2cc3c(=O)n(CC(=O)Nc4cc(F)ccc4C)ccn3n2)cc1 8.57%, Cc1cc(C)c2c(=O)cc(C(=O)Nc3c(C)n(C)n(-c4ccccc4)c3=O)oc2c1 -3.31%, COc1ccc(C(=O)c2c(N)c(-c3nc(-c4ccc(OC)cc4)cs3)c3ccccn23)cc1 0.902%, COc1cc2[nH]c(=O)n(CCC(=O)N3CCN(c4ccc(Cl)cc4)CC3)c(=O)c2cc1OC -19%, CCn1nc(-c2ccccc2)c(-c2ccccc2)c(C(=O)Nc2ccccc2C#N)c1=O 0.0943%, Cc1cc(C)c(/C=C/c2onc(C)c2S(=O)(=O)N2CCC(C(=O)NCc3ccccc3Cl)CC2)c(C)c1 4.75%, COc1ccc(S(=O)(=O)c2c(O)c3ccc(C(=O)NCc4ccc(Cl)cc4)cc3[nH]c2=O)cc1 0.781%, CCOC(=O)C1CCN(C(=O)Cn2ncc3c4ccccc4n(Cc4ccc(F)cc4)c3c2=O)CC1 -4.9%, Cc1csc2nc(COc3ccc(NC(=O)COc4ccccc4)cc3)cc(=O)n12 0.0593%, C=CCc1ccccc1OCc1nc2ccccc2n1CC 2.99%, CCN(Cc1ccccc1)C(=O)Cn1c(=O)n(-c2cccc(C)c2)c(=O)c2c1c1cc(C)ccc1n2C -4.41%, Cc1ccc2oc3c(c(=O)c2c1)C(c1ccc([N+](=O)[O-])cc1)N(CCCN1CCOCC1)C3=O (stereo not drawn) 1.36%, O=C(CN1C(=O)c2cccnc2Oc2ccc(Cl)cc21)NCCc1ccccc1 -8.4%, CC(C)(C)C(=O)Cn1c(=O)n(-c2ccccc2)c(=O)c2c3c(sc21)CCC3 6.99%, Cc1ccc(NC(=O)CN2C(=O)COc3ccc(S(=O)(=O)NC4CCCC4)cc32)cc1Cl -1.5%, Cc1cc(NC(=O)CSc2ncc(C(=O)Nc3ccc(Cl)cc3)c(=O)n2C)no1 -3.44%, Cc1ccc(CNC(=O)CN(c2cccc(C)c2C)S(=O)(=O)c2ccccc2)cc1 3.15%, CCC(CC)C(=O)Nc1ccc2nc(SCC(=O)N3CCc4ccccc43)sc2c1 -0.476%, CCOC(=O)c1c(-c2ccc(C)cc2)csc1NC(=O)c1cc(-c2ccc(C)c(F)c2)on1 1.77%, CCCCNc1ccc(-c2nc(-c3ccco3)no2)cc1[N+](=O)[O-] -0.909%, CCOc1ccc(C(=O)Nc2cccc(NC(=O)c3ccc(C(C)(C)C)cc3)c2)cc1Br 9.19%, Cn1c2ccccc2c2cnn(CC(=O)N3CCN(c4cccc(C(F)(F)F)c4)CC3)c(=O)c21 -7.59%, Cc1cccc(N2CCN(S(=O)(=O)c3cc(Cl)ccc3Cl)CC2)c1C -21.7%, CC(=O)c1cccc(NC(=O)C2CCCN(C(=O)c3cnn(-c4ccccc4)c3-n3cccc3)C2)c1 (stereo not drawn) -2.29%, COc1ccc(-c2nc(SCC(=O)Nc3ccc4c(c3)OCCO4)c(-c3ccc(F)cc3)[nH]2)cc1OC -9.49%, COc1ccc(CC(=O)NCc2ccc3c(c2)CCN3C(C)=O)cc1 0.595%, O=C(c1ccc2c(c1)N(Cc1ccc(F)cc1)C(=O)c1ccccc1S2(=O)=O)N1CCN(Cc2ccccc2)CC1 1.51%, CC1=C(C(N)=O)C(c2ccc(F)cc2)n2nc(-c3ccccc3Cl)nc2N1 (stereo not drawn) -9.94%, Cc1ccc(NC(=O)CCCn2c(=O)c3cccn3c3ccccc32)cc1C -8.82%, CC(C)CC(=O)n1nc(-c2cccnc2)nc1NCc1ccc(F)cc1 -3.61%, COCCCNC(=O)c1ccc(-n2c(-c3ccccc3)cc3c2CCCC3)cc1 -19.8%, COc1cccc(-c2nnc(SCC(=O)N3CCC(C)CC3)o2)c1 -7.18%, O=C(OCc1cc(=O)n2nc(C3CCCCC3)sc2n1)c1ccccc1Cl -0.708%, Cc1cc(C)n(-c2nc3ccccc3nc2Nc2ccc(Cl)c(C(=O)OC(C)C)c2)n1 -0.161%, COc1ccc(OCC(=O)OCc2cc(=O)n3nc(-c4cccs4)sc3n2)cc1 -3.55%, Cc1ccc(Cl)cc1NC(=O)Cn1c(=O)n(Cc2ccccc2)c(=O)c2oc3ccccc3c21 1.95%, Cc1ccc(CCNC(=O)CCCn2c(=O)c3ccccc3n(Cc3ccccc3C#N)c2=O)cc1 4.62%, CCn1cc2c(n1)-c1c(oc(C(=O)Nc3cccc(C)c3C)c1C)CC2 -0.213%, Cc1ccc(CNC(=O)CCc2c(C)nc3nc(C)nn3c2C)cc1 2.43%, Cc1ccc(OCC(=O)Nc2cccc(OCc3cc(=O)n4cccc(C)c4n3)c2)cc1C 1.17%, N#Cc1c(C(F)(F)F)cc(-c2cccs2)nc1SCC(=O)Nc1ccccc1F 10.1%, CCc1ccc(O)c(C(=O)c2cnc3cc(-c4ccc(C)cc4)nn3c2)c1 -3.5%, Cc1cc(C)cc(NC(=O)CSc2oc(-c3ccccc3)nc2S(=O)(=O)c2ccccc2)c1 -0.962%, CCOc1ccc(-c2cc(C(=O)NCc3ccccc3Cl)c3ccccc3n2)cc1 12.9%, Cc1cc(C)cc(NS(=O)(=O)c2ccc3[nH]cc(C(=O)NC4CCCCC4)c(=O)c3c2)c1 -10.7%, CCn1cc(S(=O)(=O)c2ccccc2)c(=O)c2cc(F)c(N3CCCC3)cc21 -4.71%, Cc1cc2nc(-c3cccc(NC(=O)C(C)C)c3C)oc2cc1C 3.33%, COc1cc(OC)c(OC)cc1/C=C/c1nc2cc3ccccc3cc2c(=O)n1-c1ccc(F)c(Cl)c1 -8.87%, CCc1c(C)nc(SCc2nc(-c3ccccc3)no2)[nH]c1=O 0%, O=C(c1cc(-c2ccccc2O)on1)N1CCCCC1 13.2%, O=C(c1ccc2c(c1)N(Cc1ccccc1F)C(=O)c1ccccc1S2(=O)=O)N1CCN(c2ccccc2F)CC1 -14%, CCN(CC)C(=O)c1sc2c(c1C)c(=O)n(CCc1ccccc1)c(=O)n2Cc1ccc(F)cc1Cl -2.23%, CCOc1ccc(C(=O)Nc2ccc3nn(-c4ccc(OC)c(Cl)c4)nc3c2)cc1 -1.62%, Cc1ccc(OCC(=O)Nc2cccc(-c3nc4ccccc4o3)c2C)cc1C -12.4%, COc1ccc2cc(-c3nc(Cl)c4c5c(sc4n3)CC(C)CC5)c(=O)oc2c1 (stereo not drawn) -6.13%, O=C(Cn1c(=O)n(-c2cccc(Cl)c2)c(=O)c2sc3ccccc3c21)NC1CCCCC1 -7.08%, CNC(=O)C1CCC(Cn2c(=O)c3sccc3n(CC(=O)NCc3ccc(OC)cc3)c2=O)CC1 (stereo not drawn) -2.81%, O=C(CSCc1ccc(F)cc1)N1CCN(c2ccc(Cl)cc2)CC1 6.3%, Clc1ccc(CN2CCC(CNc3ncnc4onc(-c5ccc(Cl)cc5)c34)CC2)cc1 -6.5%, COc1cc(OC)c(NC(=O)CCc2c(C)nc3ncnn3c2C)cc1Cl 6.15%
